Measured values taken from PubChem BioAssay AID1508624 (National Center for Advancing Translational Sciences (NCATS), 2021).
Among all 48,000 compounds or so, about 120 (0.25%) were called active. Another 4% or so got no clear call; they are omitted. The call rests on the fitted dose curve; in most records, active means well fitted activation curve with a large enough effect; inconclusive means small, poorly fitted or top-dose-only effect, or another doubt; inactive means no such curve, though single readings can be large or run the other way. The list shows a part of the results.

experiment: Primary qHTS for Identification of Small Molecule Activators of Huntingtin-Antisense Promoter Activity; conditions: HEK293 HTT-AS promoter firefly luciferase reporter, 24 h; series mostly up to 57.5 µM; activity change, positive = activation: at the top concentration; further: nearly all actives have a fitted effect of over 55% in size
In short: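 HEK293 Fluc reporter, 2,500 cells/well, 24 h pre-culture; cpds up to 57.5 uM final, 24 h 37 degrees C; Dual-Glo, 10 min RT; normalized vehicle = 0%, zero RLU = -100%.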

Activity change, positive = activation, inactive:
O=S(=O)(c1ccc(Br)cc1)c1nnn2c1nc(NCc1ccc3c(c1)OCO3)c1sccc12 -8.3%
Cc1ccc(CNC(=O)CCCCCn2c(=O)c3sccc3n(CC(=O)Nc3c(C)cc(C)cc3C)c2=O)cc1 -7.07%
CCCOc1ccc(CNC(=O)CCCn2nc(C)c3sc4ccccc4c3c2=O)cc1 -15.9%
CCCSc1ncc(Cl)c(C(=O)Nc2c(C(=O)Nc3ccc(OC)cc3)oc3ccccc23)n1 -3.91%
COc1cc(Cl)c(C)cc1NC(=O)Cn1ncc2c1-c1cc(C)ccc1OC2 -21.6%
COc1ccc(C(=O)Nc2nnc(SCc3cc(=O)n4cccc(C)c4n3)s2)cc1 7.15%
CC1CCCN(Cc2nc3c(c(=O)n(C)c(=O)n3C)n2Cc2ccc(Cl)cc2)C1 (stereo not given) 12.3%
O=C(Nc1cc(Cl)ccc1Cl)c1cc2nc(-c3ccc4c(c3)OCO4)cc(C(F)(F)F)n2n1 -0.0671%
Cn1nc(C(=O)NCc2ccccc2Cl)c2c1-c1ccccc1S(=O)(=O)C2 -23.7%
CSc1ccc(CNC(=O)C2CCN(c3nc4ccccc4nc3C(F)(F)F)CC2)cc1 10.8%
COc1ccc(Cl)cc1NC(=O)C1CCN(S(=O)(=O)c2ccc3c(c2)CC(C)N3C(C)=O)CC1 (stereo not given) -22.6%
Cc1cc(C)cc(NC(=O)CSc2oc(-c3ccco3)nc2S(=O)(=O)c2ccc(Cl)cc2)c1 -60.4%
CCn1nc(-c2ccccc2)c(-c2ccccc2)c(C(=O)Nc2nc(C)c(C(C)=O)s2)c1=O -30.7%
CCC(=O)N1CCc2cc(CNC(=O)c3ccc(OC)cc3)ccc21 -12.5%
CCCCn1cc(S(=O)(=O)c2ccc(C)c(C)c2)c(=O)c2cc(F)c(N(CC)CC)cc21 -3.39%
COc1ccc(-c2nc(CN3CCC(C(=O)NCCc4ccccc4)CC3)c(C)o2)cc1OC -9.65%
Cc1ccc(NC(=O)CSc2nc(=O)n(Cc3ccco3)c3c2CCC3)cc1F -38.9%
Cn1c(=O)c(=O)n(C)c2cc(N3CCCC3)c(NC(=O)c3ccccc3F)cc21 -10.6%
Cc1ccc2c(c1)-c1onc(C(=O)N3CCN(c4cc(Cl)ccc4C)CC3)c1CO2 -11.7%
COC(=O)c1ccccc1NC(=O)c1cc(CN2CCCC2)on1 4.25%
CC1Cc2ccccc2N1S(=O)(=O)c1nnc(NC(=O)c2cccc(F)c2)s1 (stereo not given) -93.4%
CCC(=O)N1CCc2cc(CNC(=O)Cc3ccc(F)cc3)ccc21 25.9%
CCOc1ccc(-c2nnc(SCC(=O)Nc3ccc(C)cc3Cl)o2)cc1 -74.7%
Cc1ccc(NC(=O)c2cc(S(=O)(=O)NC3CCCCC3)ccc2F)cc1Cl -28.1%
CCc1nnc(SCC(=O)Nc2cc(OC)ccc2OC)nc1CC -8.89%
CCN(Cc1ccccc1)C(=O)c1cc2c(=O)[nH]c3ccc(C)cc3c2s1 -21.9%
Cc1cccc(Cn2c(COc3ccc(Cl)cc3)nc3ccccc32)c1 -11.5%
Cc1ccc(CCNC(=O)c2cc3n(n2)CCCN(Cc2ccc(C)cc2)C3=O)cc1 -10.3%
CCOc1ccc(S(=O)(=O)N(CC(=O)NCCSc2ccc(C)cc2)c2ccccc2)cc1 -10.2%
Cc1cc2n(n1)CCC(=O)N2Cc1ccc(C(=O)Nc2ccc(F)cc2F)cc1 -16.9%
COc1ccc(-c2nc3scc(CCNC(=O)c4cccc(Br)c4)n3n2)cc1 -12.3%
COc1ccc(NC(=O)c2sc3nc4c(c(-c5ccc(OC)cc5)c3c2N)C(=O)CC(C)(C)C4)cc1 1.43%
Cc1cc(-c2ccc(S(=O)(=O)N3CCN(c4ccc(Cl)cc4)CC3)s2)on1 -18.5%
CCOC(=O)c1ccc(N2C(=O)c3[nH]nc(-c4ccc(OCC)cc4)c3C2c2cccs2)cc1 (stereo not given) -37.3%
CCOC(=O)c1ccc(NC(=O)CC2Nc3ccccc3NC2=O)cc1 (stereo not given) -16.4%
O=C(Nc1cc(-c2nc3cc(Cl)ccc3o2)ccc1Cl)c1cc([N+](=O)[O-])ccc1N1CCOCC1 5.11%
Cc1ccc(-c2nnc(Nc3ccc(F)cc3)c3ccccc23)cc1S(=O)(=O)N1CCN(C)CC1 14.9% [at 11.5 µM, percent change from vehicle, -100% = no light]
Cc1ccc(CNCc2cccn2-c2nnc(N3CCCC3)s2)cc1 4.61%
CCOc1cccc2c1Oc1nc(-c3ccccc3)nc(SCC(=O)Nc3ccc(F)cc3)c1C2 -0.862%
O=C(c1ccccc1Cl)N1CCCCC1CCN1CCOCC1 (stereo not given) -3.24%
COc1ccc(OC)c(CCNC(=O)c2cnn(-c3ccc(C)cc3C)c2C2CCN(C(=O)OC(C)(C)C)CC2)c1 -26.9%
CCOC(=O)c1c(NC(=O)COc2ccc(C)cc2C(C)(C)C)sc2c1CCC(C)C2 (stereo not given) -8.97%
Cc1c(C(=O)N2CCC(C)CC2)c(S(=O)(=O)Nc2cccc(C(F)(F)F)c2)c(C)n1C -27.2%
COc1ccc(CNC(=O)Cn2c(=O)ccc3cc(S(=O)(=O)N4CCCC4)ccc32)cc1 -16%
CC(=O)c1ccc(N2CCN(S(=O)(=O)c3cc(-c4noc(C)n4)ccc3C)CC2)cc1 -14.3%
Cc1ccc(Cn2c(CNC(=O)Cc3cccc(C)c3)nc3cccnc32)cc1 -16%
Cc1nn(S(=O)(=O)c2ccc(C(C)(C)C)cc2)c(C)c1S(=O)(=O)N1CCC(C)CC1 -6.32%
COc1ccc2[nH]cc(CCNC(=O)c3cnn(-c4ccc(C)cc4)c3C3CCN(C(=O)OC(C)(C)C)CC3)c2c1 -33.1%
COCCN1C(=O)c2oc3ccc(C)cc3c(=O)c2C12C(=O)N(C)c1ccccc12 (stereo not given) -12.2%
CC(=O)Nc1ccc(NC(=O)C2(c3cccs3)CCOCC2)cc1 -7.26%
CC(C)N(Cc1ccccc1)C(=O)C1CCCN(c2ncnc3onc(-c4ccc(F)cc4)c23)C1 (stereo not given) -28.5%
COc1ccccc1CNC(=O)c1cnc(SC)nc1C -13.7%
CC(=O)Nc1ccc(NC(=O)C(Cc2ccccc2)NS(=O)(=O)c2ccc3c(c2)oc(=O)n3C)cc1 (stereo not given) 15.8%
CCOC(=O)CC(NC(=O)CCc1c(C)nc2c(c1C)c(=O)n(C)c(=O)n2C)c1ccc(OCC)c(OC)c1 (stereo not given) -8.97%
CC(C)c1ccc(NS(=O)(=O)c2ccc3[nH]cc(C(=O)NCCc4ccccc4)c(=O)c3c2)cc1 -19%
CCOC(=O)c1cc(-c2ccc(F)cc2)n(CCC(=O)Nc2nc3ccc(OC)cc3s2)c1C -38.7%
Cc1ccc(-n2nc(C)c3c(C)cc(=O)n(CC(=O)NC(C)c4ccccc4)c32)cc1 (stereo not given) -1.82%
CCOc1cc(-c2ccc(OC(=O)c3ccc(OC)cc3)c(OC)c2)cc(=O)c2c(C)oc(C)c12 -24.7%
CCn1nc(C)c2c(-c3ccccc3)cc(=O)n(C(C)C(=O)NCCc3ccc(OC)c(OC)c3)c21 (stereo not given) -22.3%
CCn1cc(C(=O)O)c(=O)c2cc(F)c(N3CCNCC3)cc21
CC(C)(C)OC(=O)N1CCC(c2c(C(=O)N3CCCCC3)cnn2-c2ccccc2Cl)CC1 -9.14%
Cn1c(=O)oc2cc(S(=O)(=O)CCC(=O)NCCc3ccc(Cl)cc3)ccc21 -3.22%
COc1ccccc1OCc1nc(C#N)c(NCc2ccc(C)cc2)o1 -13.3%
Cn1c(=O)c2sccc2n2c(CCCC(=O)NC3CCCCC3)nnc12 -16.6%
Cc1ccc(Cl)cc1N1CCN(S(=O)(=O)c2cc(Br)cc3c2N(C(=O)C2CC2)CC3)CC1 -15.7%
COc1ccc(-c2nn(-c3ccccc3)cc2C2NC(=O)NC(C)=C2C(=O)OC(C)C)cc1Cl (stereo not given) -46.5%
COc1ccc(-c2nnc(SCC(=O)N(C)C3CCCCC3)o2)cc1OC -7.23%
CCOc1ccc(C(=O)c2oc3ccccc3c2NC(=O)c2cc(-c3ccc(Cl)cc3)on2)cc1 -9.26%
O=S(=O)(NCC(c1ccco1)S(=O)(=O)c1cccs1)c1ccc(Cl)cc1 (stereo not given) -16.9%
CN(Cc1ccccc1)c1ncnc2c1nnn2C 9.84%
O=c1oc2c3c(ccc2c2ccccc12)OCN(Cc1ccccc1Cl)C3 -4.04%
COC(=O)c1sccc1S(=O)(=O)N(CC(=O)Nc1ccccc1F)c1ccccc1 -13.5%
Cc1ccc(CSCCC(=O)NCc2ccc(F)cc2Cl)cc1 -20.5%
CC(=O)c1cccc(NS(=O)(=O)c2cc(-c3cnc(C4CC4)o3)ccc2C)c1 -50.3%
CCc1nn(CC(=O)N(C)Cc2ccccc2)c(=O)c2cc3sccc3n12 -28.4%
CCn1cc(C(=O)NCCCOC)c(=O)c2cc(S(=O)(=O)N3CCCC3)ccc21 13.6% [at 11.5 µM, percent change from vehicle, -100% = no light]
Cc1cccc(C(=O)n2nc(-c3cccnc3)nc2NCc2ccccc2)c1 -4.37%
Cc1ccc(C(=O)NCCc2ccc(S(N)(=O)=O)cc2)cc1-n1cnc2cccnc21 5.92%
O=C(CCCCn1c(=O)c2ccccc2n(CC(=O)Nc2ccc(F)cc2F)c1=O)NCCc1ccccc1 -2.38%
COC(=O)c1c(NC(=O)Cc2coc3ccc(C(C)C)cc23)sc2c1CCC2 0%
Cc1ccc(N=C2NC(=O)CC(C(=O)Nc3cc(C(F)(F)F)ccc3Cl)S2)cc1 (stereo not given) -25.7%
O=S(=O)(c1ccc(Cl)cc1)c1nnn2c1nc(NCc1ccc3c(c1)OCO3)c1sccc12 -5.93%
Cc1ccc(N(CC(=O)Nc2cc(C)ccc2C)S(=O)(=O)c2c(C)noc2C)cc1 -24.4%
COc1cc(Cl)c(NS(=O)(=O)c2cc(-c3cc(C)no3)ccc2OC)c(OC)c1 -35.6%
CCCCN(CC)CCNC(=O)C1CCCN(c2ncnc3onc(C)c23)C1 (stereo not given) -6.41%
COc1ccc(-n2c(SCC(=O)c3ccccc3)nc3c([nH]c4ccccc43)c2=O)cc1 -7.83%
CCOc1ccccc1NC(=O)C1CCN(S(=O)(=O)c2ccc3c(c2)CCCN3C(C)=O)CC1 -17.8%
Cc1ccc(COC(=O)c2[nH]c3c(c2C)C(=O)CC(c2ccc(N(C)C)cc2)C3)cc1 (stereo not given) -5.16%
CCS(=O)(=O)c1ncc(Cl)c(C(=O)Nc2ccccc2)n1 -93.5%
CCC(=O)N1c2ccccc2CC1C(=O)NCc1ccc(N(C)C)cc1 (stereo not given) -21.1%
